# Test results published in the supplement of paper PMC8728848.
# The other results are listed elsewhere or left out.
# B1: PX9961A-pdi-456-24-456 (Parabacteroides distasonis) (protein)
# chain: KTSSTQLPTIDAISSVADLTNAVNGVYEQQATEVGSYGAEFTLLADLRSGDFQSISTVNHAGPMYRYQTGKNDEMVYSFYKLFYNSLARLNNVLAAAENLEGADVDILKGELYAMRALYHFDLARVFAKLPSTTDMNDLGIVLSTEVYPTDYIGTRATLQQTYDQILKDIETALPLLSKDKQTGHINYWGALAIRARAYLYLEKNKEALADCKEIIASSPYKLYTRDEYIGAWDKEGTNEAIFEILVTPNYNAQRNSIGYFTHASGYGECAATESFLEELAKHPGDIRTELFAKETDNGYDGTYPQKYKGRDGQIYVNNPKVVRLSEVYLIAAEAALKAGDTSAAAGYMNTLRKNRIENYTDVASITLDDILLERRLELFTEGHTAWDAWRNGKSVNNKFVGEVKPGDYRTIMAIPIGEITVSRGQLIQNPGY
# Columns and labels:
# Test in all cases: glycan array binding signal (z-score within array); higher = stronger binding
# Settings in all cases: glycan notation: IUPAC condensed, linker removed
# [1] = target: GlcNAc(b1-4)GlcNAc(b1-4)GlcNAc(b1-4)GlcNAc(b1-4)GlcNAc
# Procedure, shortened: (§1)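 Columns mapping to the same glycan were averaged after glycan names were converted to IUPAC-condensed notation. The data come from 3228 arrays in the Consortium for Functional Glycomics database, limited to those with an available protein sequence. Binding is reported as a within-array Z-score averaged across arrays of one protein sequence and across linkers.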
# [2] = target: GlcNAc(b1-4)GlcNAc(b1-4)GlcNAc(b1-4)GlcNAc(b1-4)GlcNAc(b1-4)GlcNAc
# Procedure, shortened: as §1
# [3] = target: GlcNAc(b1-4)[GlcNAc(b1-6)]GalNAc
# Procedure, shortened: as §1
# [4] = target: GlcNAc(b1-6)Gal(b1-4)GlcNAc
# Procedure, shortened: as §1
# [5] = target: GlcNAc(b1-6)GalNAc
# Procedure, shortened: as §1
# [6] = target: GlcNAc6S(b1-3)Gal(b1-4)GlcNAc
# Procedure, shortened: as §1
# [7] = target: Kdn(a2-3)Gal(b1-3)GalNAc
# Procedure, shortened: as §1
# [8] = target: Kdn(a2-3)Gal(b1-3)GlcNAc
# Procedure, shortened: as §1
# [9] = target: Kdn(a2-3)Gal(b1-4)Glc
# Procedure, shortened: as §1
# [10] = target: Kdn(a2-3)Gal(b1-4)GlcNAc
# Procedure, shortened: as §1
# [11] = target: Kdn(a2-3)Gal(b1-4)[Fuc(a1-3)]GlcNAc
# Procedure, shortened: as §1
# [12] = target: Kdn(a2-6)Gal(b1-4)GlcNAc
# Procedure, shortened: as §1
# [13] = target: Man(a1-2)Man(a1-2)Man(a1-3)Man
# Procedure, shortened: as §1
# [14] = target: Man(a1-2)Man(a1-2)Man(a1-6)[Man(a1-3)]Man
# Procedure, shortened: as §1
# [15] = target: Man(a1-2)Man(a1-3)Man
# Procedure, shortened: as §1
# [16] = target: Man(a1-2)Man(a1-3)[Man(a1-2)Man(a1-6)]Man
# Procedure, shortened: as §1
# [17] = target: Man(a1-2)Man(a1-3)[Man(a1-2)Man(a1-6)]Man(a1-6)[Man(a1-2)Man(a1-2)Man(a1-3)]Man
# Procedure, shortened: as §1
# [18] = target: Man(a1-2)Man(a1-3)[Man(a1-2)Man(a1-6)]Man(a1-6)[Man(a1-2)Man(a1-2)Man(a1-3)]Man(b1-4)GlcNAc(b1-4)GlcNAc
# Procedure, shortened: as §1
# [19] = target: Man(a1-2)Man(a1-3)[Man(a1-6)]Man(a1-6)[Man(a1-2)Man(a1-3)]Man(b1-4)GlcNAc(b1-4)GlcNAc
# Procedure, shortened: as §1
# [20] = target: Man(a1-2)Man(a1-6)[Man(a1-3)]Man(a1-6)[Man(a1-2)Man(a1-2)Man(a1-3)]Man
# Procedure, shortened: as §1
# [21] = target: Man(a1-2)Man(a1-6)[Man(a1-3)]Man(a1-6)[Man(a1-2)Man(a1-2)Man(a1-3)]Man(b1-4)GlcNAc(b1-4)GlcNAc
# Procedure, shortened: as §1
# [22] = target: Man(a1-3)[Man(a1-6)]Man
# Procedure, shortened: as §1
# [23] = target: Man(a1-3)[Man(a1-6)]Man(a1-6)[Man(a1-2)Man(a1-3)]Man(b1-4)GlcNAc(b1-4)GlcNAc
# Procedure, shortened: as §1
# [24] = target: Man(a1-3)[Man(a1-6)]Man(a1-6)[Man(a1-3)]Man
# Procedure, shortened: as §1
# [25] = target: Man(a1-3)[Man(a1-6)]Man(a1-6)[Man(a1-3)]Man(b1-4)GlcNAc(b1-4)GlcNAc
# Procedure, shortened: as §1
# [26] = target: Man(a1-3)[Man(a1-6)]Man(b1-4)GlcNAc(b1-4)GlcNAc
# Procedure, shortened: as §1
# [27] = target: Man(a1-3)[Man(a1-6)]Man(b1-4)GlcNAc(b1-4)[Fuc(a1-6)]GlcNAc
# Procedure, shortened: as §1
# [28] = target: Man(a1-6)Man
# Procedure, shortened: as §1
# [29] = target: Man(b1-4)GlcNAc
# Procedure, shortened: as §1
# [30] = target: MurNAc(b1-4)GlcNAc
# Procedure, shortened: as §1
# [31] = target: Neu5Ac(a2-3)Gal
# Procedure, shortened: as §1
# [32] = target: Neu5Ac(a2-3)Gal(b1-3)GalNAc
# Procedure, shortened: as §1
# [33] = target: Neu5Ac(a2-3)Gal(b1-3)GalNAc(b1-3)Gal(a1-4)Gal(b1-4)Glc
# Procedure, shortened: as §1
# [34] = target: Neu5Ac(a2-3)Gal(b1-3)GalNAc(b1-4)[Neu5Ac(a2-3)]Gal(b1-4)Glc
# Procedure, shortened: as §1
# [35] = target: Neu5Ac(a2-3)Gal(b1-3)GalNAc(b1-4)[Neu5Ac(a2-8)Neu5Ac(a2-3)]Gal(b1-4)Glc
# Procedure, shortened: as §1
# [36] = target: Neu5Ac(a2-3)Gal(b1-3)GalNAc6S
# Procedure, shortened: as §1
# [37] = target: Neu5Ac(a2-3)Gal(b1-3)GlcNAc
# Procedure, shortened: as §1
# [38] = target: Neu5Ac(a2-3)Gal(b1-3)GlcNAc(b1-2)Man
# Procedure, shortened: as §1
# [39] = target: Neu5Ac(a2-3)Gal(b1-3)GlcNAc(b1-2)Man(a1-3)[GlcNAc(b1-4)][Neu5Ac(a2-3)Gal(b1-3)GlcNAc(b1-2)Man(a1-6)]Man(b1-4)GlcNAc(b1-4)GlcNAc
# Procedure, shortened: as §1
# [40] = target: Neu5Ac(a2-3)Gal(b1-3)GlcNAc(b1-2)Man(a1-3)[Neu5Ac(a2-3)Gal(b1-3)GlcNAc(b1-2)Man(a1-6)]Man(b1-4)GlcNAc(b1-4)GlcNAc
# Procedure, shortened: as §1
# [41] = target: Neu5Ac(a2-3)Gal(b1-3)GlcNAc(b1-3)Gal(b1-3)GlcNAc
# Procedure, shortened: as §1
# [42] = target: Neu5Ac(a2-3)Gal(b1-3)GlcNAc(b1-3)Gal(b1-4)GlcNAc
# Procedure, shortened: as §1
# [43] = target: Neu5Ac(a2-3)Gal(b1-3)GlcNAc(b1-3)GalNAc
# Procedure, shortened: as §1
# [44] = target: Neu5Ac(a2-3)Gal(b1-3)GlcNAc(b1-4)Gal(b1-4)Glc
# Procedure, shortened: as §1
# [45] = target: Neu5Ac(a2-3)Gal(b1-3)GlcNAc(b1-6)GalNAc
# Procedure, shortened: as §1
binder,measurement,setting,value
B1,glycan array binding signal (z-score),[1],-0.251
same,glycan array binding signal (z-score),[2],-0.069
same,glycan array binding signal (z-score),[3],-0.316
same,glycan array binding signal (z-score),[4],-0.288
same,glycan array binding signal (z-score),[5],-0.224
same,glycan array binding signal (z-score),[6],0.048
same,glycan array binding signal (z-score),[7],0.217
same,glycan array binding signal (z-score),[8],-0.326
same,glycan array binding signal (z-score),[9],-0.271
same,glycan array binding signal (z-score),[10],0.468
same,glycan array binding signal (z-score),[11],-0.296
same,glycan array binding signal (z-score),[12],-0.188
same,glycan array binding signal (z-score),[13],-0.458
same,glycan array binding signal (z-score),[14],0.201
same,glycan array binding signal (z-score),[15],-0.473
same,glycan array binding signal (z-score),[16],0.015
same,glycan array binding signal (z-score),[17],-0.616
same,glycan array binding signal (z-score),[18],-0.159
same,glycan array binding signal (z-score),[19],0.028
same,glycan array binding signal (z-score),[20],-0.433
same,glycan array binding signal (z-score),[21],-0.237
same,glycan array binding signal (z-score),[22],-0.486
same,glycan array binding signal (z-score),[23],-0.3
same,glycan array binding signal (z-score),[24],-0.024
same,glycan array binding signal (z-score),[25],-0.014
same,glycan array binding signal (z-score),[26],-0.44
same,glycan array binding signal (z-score),[27],0.227
same,glycan array binding signal (z-score),[28],0.042
same,glycan array binding signal (z-score),[29],-0.455
same,glycan array binding signal (z-score),[30],-0.117
same,glycan array binding signal (z-score),[31],0.205
same,glycan array binding signal (z-score),[32],-0.099
same,glycan array binding signal (z-score),[33],0.851
same,glycan array binding signal (z-score),[34],-0.189
same,glycan array binding signal (z-score),[35],0.175
same,glycan array binding signal (z-score),[36],0.007
same,glycan array binding signal (z-score),[37],-0.355
same,glycan array binding signal (z-score),[38],-0.384
same,glycan array binding signal (z-score),[39],-0.511
same,glycan array binding signal (z-score),[40],-0.512
same,glycan array binding signal (z-score),[41],-0.139
same,glycan array binding signal (z-score),[42],-0.604
same,glycan array binding signal (z-score),[43],-0.259
same,glycan array binding signal (z-score),[44],-0.437
same,glycan array binding signal (z-score),[45],0.343
